{"source": "PubChem BioAssay AID2147", "about": "(National Center for Advancing Translational Sciences (NCATS), 2009)", "note": "Where “and” joins values, the source holds several entries; their conditions need not be identical. Identical values can stand only once. About 3,600 (1.6%) of roughly 230,000 compounds were called active. This list was built around the results that the source calls inconclusive (neither active nor inactive); the mix of calls is not that of the screen. Calls follow the shape of the dose curve; as a rule, active = well fitted inhibition curve with a large enough effect (not every such curve was filed as active); inconclusive = small, poorly fitted or top-dose-only effect, or another doubt; inactive = no such curve, though single readings can be large or run the other way. A potency beside an inconclusive call is a rough fit, not a confirmed value. Also: nearly all actives have a fitted effect of over 50% in size. Potency is read from the fitted curve at half-maximal effect; tags tell the direction and shape of the fitted curve.", "data": [{"molecular_target": "Lysine-specific demethylase 4E (Homo sapiens) (UniProt B2RXH2)", "sequence (B2RXH2 whole entry, looked up, the tested form may be a part)": "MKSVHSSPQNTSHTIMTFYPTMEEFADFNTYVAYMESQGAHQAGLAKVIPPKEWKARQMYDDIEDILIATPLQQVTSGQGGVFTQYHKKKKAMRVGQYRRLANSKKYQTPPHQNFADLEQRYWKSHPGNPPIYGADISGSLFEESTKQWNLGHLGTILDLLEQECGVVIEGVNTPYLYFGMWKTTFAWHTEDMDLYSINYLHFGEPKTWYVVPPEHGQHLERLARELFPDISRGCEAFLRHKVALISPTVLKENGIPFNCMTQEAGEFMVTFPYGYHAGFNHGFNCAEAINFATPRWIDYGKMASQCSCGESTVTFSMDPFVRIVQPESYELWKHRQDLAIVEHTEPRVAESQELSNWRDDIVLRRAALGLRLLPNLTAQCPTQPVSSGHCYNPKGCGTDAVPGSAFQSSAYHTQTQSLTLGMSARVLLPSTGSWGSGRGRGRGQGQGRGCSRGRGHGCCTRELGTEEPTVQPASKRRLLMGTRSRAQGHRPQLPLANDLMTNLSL", "experiment": "qHTS Assay for Inhibitors of Human Jumonji Domain Containing 2E (JMJD2E)", "conditions": "JMJD2E catalytic domain, FDH-coupled NADH fluorescence (FDH is formaldehyde dehydrogenase); series mostly up to 57.1 µM", "values": [{"smiles": "COc1ccc(Nc2nc3ccccc3nc2-n2nc(C)cc2C)cc1", "Potency": "inconclusive: 35.5 µM [inhibitor, single point]"}, {"smiles": "CN(C)CCNC(=O)c1cc2c(s1)-c1ccccc1OC2", "Potency": "inconclusive: 5.01 µM [inhibitor, partial curve]"}, {"smiles": "CCOC(=O)C1CCCN(S(=O)(=O)c2ccccc2)C1", "note": "(centres undefined)", "Potency": "inactive"}, {"smiles": "CCOc1ccccc1NC(=O)c1cccc(NC(=O)CC(c2ccccc2)c2ccccc2)c1", "Potency": "inconclusive: 39.8 µM [inhibitor, single point]"}, {"smiles": "O=c1[nH]c2cc(Br)cnc2nc1/C=C(\\O)c1ccc(F)cc1", "Potency": "inconclusive: 35.5 µM [inhibitor, single point]"}, {"smiles": "Cc1ccc2ncccc2c1[N+](=O)[O-]", "Potency": "inactive"}, {"smiles": "COC(=O)CCCC1=CC2=CC(=O)C(C)(OC(=O)c3cccs3)C(=O)C2=CN1Cc1ccc2c(c1)OCO2", "note": "(centres undefined)", "Potency": "inconclusive: 15.8 µM [inhibitor, partial curve] and inconclusive: 3.55 µM [inhibitor, single point]"}, {"smiles": "COc1cccc(NC(=S)/C(=C(\\[O-])c2ccc([N+](=O)[O-])cc2)[n+]2ccccc2)c1", "Potency": "inconclusive: 20 µM [inhibitor, single point]"}, {"smiles": "CCN1CCN(C(=O)Nc2cccc3ccccc23)CC1", "Potency": "inconclusive: 25.1 µM [inhibitor, partial curve]"}, {"smiles": "C=CCn1c(Cc2c[nH]c3ccccc23)n[nH]c1=S", "Potency": "inactive"}, {"smiles": "Cc1ccc2[nH]c(=O)c(CN(CCCN(C)C)C(=O)Nc3ccc(F)cc3)cc2c1", "Potency": "inconclusive: 28.2 µM [inhibitor, single point]"}, {"smiles": "CCOc1ccccc1N/C=C/C(=O)C(C)(C)C", "Potency": "inactive"}, {"smiles": "Cc1cc(NCCCN2CCOCC2)n2ncc(-c3ccccc3)c2n1", "Potency": "inconclusive: 22.4 µM [inhibitor, partial curve]"}, {"smiles": "CCOC(=O)c1cc2c(=O)n3ccccc3nc2n(Cc2ccccc2Cl)c1=N", "Potency": "inconclusive: 3.55 µM [inhibitor, full curve]"}, {"smiles": "COc1cccc(C(=O)C2CCCN(C(=O)CCC3=NNC(=O)CC3)C2)c1", "note": "(centres undefined)", "Potency": "inconclusive: 31.6 µM [inhibitor, single point]"}, {"smiles": "COC(=O)c1cc(Br)ccc1-c1ccc(/C=N/n2nnnc2N)o1", "Potency": "inconclusive: 39.8 µM [inhibitor, single point]"}, {"smiles": "N#Cc1nc(-c2ccco2)oc1NCCCN1CCOCC1", "Potency": "inconclusive: 31.6 µM [inhibitor, partial curve]"}, {"smiles": "Cn1ncc2c(Nc3ccccc3Cl)nc(Nc3ccccc3Cl)nc21", "Potency": "inconclusive: 25.1 µM [inhibitor, partial curve]"}, {"smiles": "Cc1cc(C)cc(NC(=O)c2cc(Cl)sc2Cl)c1", "Potency": "inconclusive: 20 µM [inhibitor, single point]"}, {"smiles": "Cc1cc(=O)[nH]c(N/N=C/c2ccc3c(c2)OCCO3)n1", "Potency": "inconclusive: 31.6 µM [inhibitor, single point]"}, {"smiles": "COc1ccc(C(CNC(=O)c2ccc(S(=O)(=O)N3CCOCC3)cc2)N2CCCCC2)cc1", "note": "(centres undefined)", "Potency": "inactive"}, {"smiles": "Cc1cccc(NC(=O)CSc2nc3ccc(NC(=O)CSc4nnnn4-c4ccccc4)cc3s2)c1C", "Potency": "inactive"}, {"smiles": "CC(=O)Nc1cccc(C2=CC(c3ccco3)n3ncnc3N2)c1", "note": "(centres undefined)", "Potency": "inconclusive: 35.5 µM [inhibitor, single point]"}, {"smiles": "Cc1nc(N=Nc2ccc(S(=O)(=O)O)cc2S(=O)(=O)O)c(COP(=O)(O)O)c(C=O)c1O", "Potency": "inconclusive: 22.4 µM [inhibitor, single point]"}, {"smiles": "COc1ccccc1NC(=O)c1c(N=Cc2cccc([N+](=O)[O-])c2)cnn1C", "Potency": "inactive"}, {"smiles": "CC(=O)C1=C(C)NC(SCc2cccc3ccccc23)=C(C#N)C1c1ccco1", "note": "(centres undefined)", "Potency": "inconclusive: 25.1 µM [inhibitor, single point]"}, {"smiles": "CCCn1c(=N)c(S(=O)(=O)c2ccccc2)cc2c(=O)n3ccccc3nc21", "Potency": "inconclusive: 25.1 µM [inhibitor, partial curve]"}, {"smiles": "O=C(Nc1ccc(S(=O)(=O)N2CCc3ccccc3C2)cc1)c1ccccc1", "Potency": "inconclusive: 39.8 µM [inhibitor, single point]"}, {"smiles": "COC(=O)C(CC(=O)O)NCc1ccco1", "note": "(centres undefined)", "Potency": "inactive"}, {"smiles": "O=C(NC(Cc1ccc(O)cc1)C(=O)O)c1ccco1", "note": "(centres undefined)", "Potency": "inconclusive: 39.8 µM [inhibitor, single point]"}, {"smiles": "Cc1ccc(NC(=O)c2ccco2)c([N+](=O)[O-])c1", "Potency": "inactive"}, {"smiles": "CCOC(=O)/C(C#N)=C/c1cc2ccc(C)cc2nc1Cl", "Potency": "inactive"}, {"smiles": "CCn1c(C)nc2cc(N)ccc21", "Potency": "inconclusive: 28.2 µM [inhibitor, single point]"}, {"smiles": "CCOC(=O)c1cc2c(=O)n3ccccc3nc2n(Cc2ccco2)c1=NC(=O)c1ccc(OC)cc1OC", "Potency": "inconclusive: 28.2 µM [inhibitor, partial curve]"}, {"smiles": "N#Cc1nc(-c2ccc(Cl)cc2)oc1NCCc1ccccn1", "Potency": "inconclusive: 7.08 µM [inhibitor, full curve]"}, {"smiles": "Cc1cccc(C)c1OCC(=O)Nc1ccc(NC(=O)c2ccco2)cc1", "Potency": "inconclusive: 35.5 µM [inhibitor, single point]"}, {"smiles": "N#CC1=C(N)n2c(s/c(=C\\c3cccs3)c2=O)=C(C#N)C1c1cccs1", "note": "(centres undefined)", "Potency": "inconclusive: 20 µM [inhibitor, single point]"}, {"smiles": "O=C(NCc1ccc(F)cc1)c1ccc(N2CCc3ccccc32)c([N+](=O)[O-])c1", "Potency": "inactive"}, {"smiles": "CC(C)CNS(=O)(=O)c1ccc(CCC(=O)NCc2ccco2)cc1", "Potency": "inactive"}, {"smiles": "COc1cc(-c2nn3c(-c4cccnc4)nnc3s2)cc(OC)c1OC", "Potency": "inconclusive: 35.5 µM [inhibitor, partial curve]"}, {"smiles": "CCCCC[C@H](CC(=O)NO)C(=O)N[C@H](C(=O)N1CCC[C@H]1CO)C(C)C", "Potency": "inactive"}, {"smiles": "CCOc1ccc(-c2nnn(CC(=O)Nc3cccc(OC)c3)n2)cc1OCC", "Potency": "inconclusive: 39.8 µM [inhibitor, single point]"}, {"smiles": "Cc1cc(OCC(=O)Nc2ccc3oc(-c4ccncc4)nc3c2)ccc1Cl", "Potency": "inconclusive: 2.82 µM [inhibitor, partial curve]"}, {"smiles": "Cn1c(CCN2CCCCCC2)nc2cc(NC(=O)Nc3ccccc3)ccc21", "Potency": "inconclusive: 28.2 µM [inhibitor, partial curve]"}]}]}
